Laboratory results reported in paper PMC5268361.
No constants are given. Whether binding was seen depends on the method and setting. Binding seen in cells or lysates may run through a third protein. Some results given as binding are weak or reduced against the parent protein; the word gives no strength. For some of these results: Where a sequence is shown, tags or fusion partners need not be part of it.

The chains behind the UniProt entries cited, without tags or fusion partners. Where a name states a change or a piece, a line headed by the entry shows the natural chain unless it says otherwise.
UniProt Q9ULZ3: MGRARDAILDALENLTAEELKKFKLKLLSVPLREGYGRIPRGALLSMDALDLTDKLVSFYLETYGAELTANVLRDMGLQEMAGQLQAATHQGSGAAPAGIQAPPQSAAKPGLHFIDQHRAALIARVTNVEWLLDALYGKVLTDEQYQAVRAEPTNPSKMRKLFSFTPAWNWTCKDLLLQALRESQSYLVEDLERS

Experiments:
[1] = target: mammalian GST-GRA7 fusion (wild type) (Toxoplasma gondii) (UniProt O00933); assay: pull-down; 293T cells co-transfected (48 hr) with mammalian GST-GRA7 constructs and V5-ASC or AU1-PLD1 constructs; GST pulldown, IB with αV5 or αAU1
[2] = target: mammalian GST-GRA7-I (N-terminal I-domain, aa26-80) (Toxoplasma gondii) (UniProt O00933); assay: as above
[3] = target: mammalian GST-GRA7-I S52A (Toxoplasma gondii) (UniProt O00933); assay: as above
[4] = target: bacterially purified 6xHis-GRA7-I (aa 26-80) (Toxoplasma gondii) (UniProt O00933); assay: co-IP; BMDMs from PKCα+/+ and PKCα-/- mice stimulated with rGRA7-I or rGRA7-III and their mutants for 18 h, subcellularly fractionated, co-IP with αHis, IB with αASC, αPLD1, αPKCα; only the target purified
[5] = target: T1, PLD1, endogenous in mouse bone marrow-derived macrophages (mouse (endogenous in BMDMs)) (UniProt Q9Z280); assay: co-IP; only the binder purified
T1 sequence: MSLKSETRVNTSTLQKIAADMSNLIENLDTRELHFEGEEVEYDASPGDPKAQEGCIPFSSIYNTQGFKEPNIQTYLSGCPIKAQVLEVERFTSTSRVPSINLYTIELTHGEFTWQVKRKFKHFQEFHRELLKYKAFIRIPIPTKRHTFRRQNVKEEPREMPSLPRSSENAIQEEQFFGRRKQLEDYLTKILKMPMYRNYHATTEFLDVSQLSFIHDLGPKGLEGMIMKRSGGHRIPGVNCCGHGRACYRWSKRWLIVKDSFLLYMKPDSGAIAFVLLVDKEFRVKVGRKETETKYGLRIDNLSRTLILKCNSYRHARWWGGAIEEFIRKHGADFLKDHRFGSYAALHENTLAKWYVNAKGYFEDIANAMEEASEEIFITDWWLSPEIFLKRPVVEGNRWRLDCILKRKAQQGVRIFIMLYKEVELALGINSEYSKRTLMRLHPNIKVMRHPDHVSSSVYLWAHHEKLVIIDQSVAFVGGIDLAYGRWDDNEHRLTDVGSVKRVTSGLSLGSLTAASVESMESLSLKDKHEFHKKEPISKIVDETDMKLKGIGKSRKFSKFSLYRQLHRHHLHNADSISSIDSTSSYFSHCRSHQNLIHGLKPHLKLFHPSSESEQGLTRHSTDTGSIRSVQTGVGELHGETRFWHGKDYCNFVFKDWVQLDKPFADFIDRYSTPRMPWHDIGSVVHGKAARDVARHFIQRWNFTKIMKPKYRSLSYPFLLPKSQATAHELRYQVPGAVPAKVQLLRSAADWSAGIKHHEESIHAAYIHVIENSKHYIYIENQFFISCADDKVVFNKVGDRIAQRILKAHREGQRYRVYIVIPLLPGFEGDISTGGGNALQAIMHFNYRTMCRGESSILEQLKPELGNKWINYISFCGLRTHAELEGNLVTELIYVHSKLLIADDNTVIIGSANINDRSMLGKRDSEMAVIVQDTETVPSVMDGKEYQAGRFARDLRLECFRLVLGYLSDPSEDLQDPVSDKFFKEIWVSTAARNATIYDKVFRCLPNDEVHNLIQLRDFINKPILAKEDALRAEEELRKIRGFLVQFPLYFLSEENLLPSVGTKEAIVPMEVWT

[6] = target: T2, bacterially purified 6xHis-GRA7-III (aa 120-150) (Toxoplasma gondii) (UniProt O00933); assay: co-IP; BMDMs from PKCα+/+ and PKCα-/- mice stimulated with rGRA7-I or rGRA7-III and their mutants for 18 h, subcellularly fractionated, co-IP with αHis, IB with αASC, αPLD1, αPKCα; only the target purified
T2 sequence: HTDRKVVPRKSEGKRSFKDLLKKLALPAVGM

[7] = target: T3, mammalian GST-GRA7-III (N-terminal III-domain, aa120-150) (Toxoplasma gondii) (UniProt O00933); assay: pull-down; 293T cells co-transfected (48 hr) with mammalian GST-GRA7 constructs and V5-ASC or AU1-PLD1 constructs; GST pulldown, IB with αV5 or αAU1
T3 sequence: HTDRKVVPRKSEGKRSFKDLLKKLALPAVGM

Question: Which results are given for “V5-tagged ASC (wild type) (from UniProt Q9ULZ3 1-195)”?
Answer: binding [1]: binds; binding [2]: binds weakly; binding [3]: no binding

Question: With “PKCα, endogenous in mouse bone marrow-derived macrophages (from UniProt P20444 1-672) (enzyme)” as the molecule, how does the binding [4] read?
Answer: Its binding is “binds”.

Question: Which binding [1] does the source give for “V5-tagged ASC N-terminal PYD domain (aa1-91) (from UniProt Q9ULZ3 1-91) (domain or fragment)” here?
Answer: Its binding is “binds”.

Question: How did the binding [1] turn out when “AU1-tagged PLD1 PX domain (aa81-212) (from UniProt Q13393 81-212) (domain or fragment)” was run?
Answer: The binding was “binds”.

B1: bacterially purified 6xHis-GRA7-III (aa 120-150) (domain or fragment, UniProt O00933 120-150)
chain: HTDRKVVPRKSEGKRSFKDLLKKLALPAVGM
Question: B1 was tested. Which binding [5] did it give?
Answer: Its binding is “binds”.

B2: PLD1, endogenous in mouse bone marrow-derived macrophages (enzyme, UniProt Q9Z280 1-1074)
chain: MSLKSETRVNTSTLQKIAADMSNLIENLDTRELHFEGEEVEYDASPGDPKAQEGCIPFSSIYNTQGFKEPNIQTYLSGCPIKAQVLEVERFTSTSRVPSINLYTIELTHGEFTWQVKRKFKHFQEFHRELLKYKAFIRIPIPTKRHTFRRQNVKEEPREMPSLPRSSENAIQEEQFFGRRKQLEDYLTKILKMPMYRNYHATTEFLDVSQLSFIHDLGPKGLEGMIMKRSGGHRIPGVNCCGHGRACYRWSKRWLIVKDSFLLYMKPDSGAIAFVLLVDKEFRVKVGRKETETKYGLRIDNLSRTLILKCNSYRHARWWGGAIEEFIRKHGADFLKDHRFGSYAALHENTLAKWYVNAKGYFEDIANAMEEASEEIFITDWWLSPEIFLKRPVVEGNRWRLDCILKRKAQQGVRIFIMLYKEVELALGINSEYSKRTLMRLHPNIKVMRHPDHVSSSVYLWAHHEKLVIIDQSVAFVGGIDLAYGRWDDNEHRLTDVGSVKRVTSGLSLGSLTAASVESMESLSLKDKHEFHKKEPISKIVDETDMKLKGIGKSRKFSKFSLYRQLHRHHLHNADSISSIDSTSSYFSHCRSHQNLIHGLKPHLKLFHPSSESEQGLTRHSTDTGSIRSVQTGVGELHGETRFWHGKDYCNFVFKDWVQLDKPFADFIDRYSTPRMPWHDIGSVVHGKAARDVARHFIQRWNFTKIMKPKYRSLSYPFLLPKSQATAHELRYQVPGAVPAKVQLLRSAADWSAGIKHHEESIHAAYIHVIENSKHYIYIENQFFISCADDKVVFNKVGDRIAQRILKAHREGQRYRVYIVIPLLPGFEGDISTGGGNALQAIMHFNYRTMCRGESSILEQLKPELGNKWINYISFCGLRTHAELEGNLVTELIYVHSKLLIADDNTVIIGSANINDRSMLGKRDSEMAVIVQDTETVPSVMDGKEYQAGRFARDLRLECFRLVLGYLSDPSEDLQDPVSDKFFKEIWVSTAARNATIYDKVFRCLPNDEVHNLIQLRDFINKPILAKEDALRAEEELRKIRGFLVQFPLYFLSEENLLPSVGTKEAIVPMEVWT
Question: How did the binding [6] turn out when B2 was run?
Answer: Its binding is “binds”.

B3: AU1-tagged PLD1 (wild type) (enzyme, UniProt Q13393 1-1074)
chain: MSLKNEPRVNTSALQKIAADMSNIIENLDTRELHFEGEEVDYDVSPSDPKIQEVYIPFSAIYNTQGFKEPNIQTYLSGCPIKAQVLEVERFTSTTRVPSINLYTIELTHGEFKWQVKRKFKHFQEFHRELLKYKAFIRIPIPTRRHTFRRQNVREEPREMPSLPRSSENMIREEQFLGRRKQLEDYLTKILKMPMYRNYHATTEFLDISQLSFIHDLGPKGIEGMIMKRSGGHRIPGLNCCGQGRACYRWSKRWLIVKDSFLLYMKPDSGAIAFVLLVDKEFKIKVGKKETETKYGIRIDNLSRTLILKCNSYRHARWWGGAIEEFIQKHGTNFLKDHRFGSYAAIQENALAKWYVNAKGYFEDVANAMEEANEEIFITDWWLSPEIFLKRPVVEGNRWRLDCILKRKAQQGVRIFIMLYKEVELALGINSEYTKRTLMRLHPNIKVMRHPDHVSSTVYLWAHHEKLVIIDQSVAFVGGIDLAYGRWDDNEHRLTDVGSVKRVTSGPSLGSLPPAAMESMESLRLKDKNEPVQNLPIQKSIDDVDSKLKGIGKPRKFSKFSLYKQLHRHHLHDADSISSIDSTSSYFNHYRSHHNLIHGLKPHFKLFHPSSESEQGLTRPHADTGSIRSLQTGVGELHGETRFWHGKDYCNFVFKDWVQLDKPFADFIDRYSTPRMPWHDIASAVHGKAARDVARHFIQRWNFTKIMKSKYRSLSYPFLLPKSQTTAHELRYQVPGSVHANVQLLRSAADWSAGIKYHEESIHAAYVHVIENSRHYIYIENQFFISCADDKVVFNKIGDAIAQRILKAHRENQKYRVYVVIPLLPGFEGDISTGGGNALQAIMHFNYRTMCRGENSILGQLKAELGNQWINYISFCGLRTHAELEGNLVTELIYVHSKLLIADDNTVIIGSANINDRSMLGKRDSEMAVIVQDTETVPSVMDGKEYQAGRFARGLRLQCFRVVLGYLDDPSEDIQDPVSDKFFKEVWVSTAARNATIYDKVFRCLPNDEVHNLIQLRDFINKPVLAKEDPIRAEEELKKIRGFLVQFPFYFLSEESLLPSVGTKEAIVPMEVWT
Question: Which binding [1] does the source give for B3 here?
Answer: The binding was “binds”.

Question: What about the binding [7] of the same molecule?
Answer: The binding was “binds”.
